Measurements from PubChem BioAssay AID602310 (National Center for Advancing Translational Sciences (NCATS), 2012).
Among all 410,000 compounds or so, about 310 (0.076%) were called active. Inconclusive results, whose numbers are uncertain, are shown with a selection of clear calls. Calls follow the shape of the dose curve; as a rule, active = well fitted curve in the direction sought with a large enough effect; inconclusive = small, poorly fitted or top-dose-only effect; inactive = flat fitted curve, though single readings scatter. Where the call is inconclusive, the potency comes from a doubtful curve fit.

Molecular target: DNA dC->dU-editing enzyme APOBEC-3G (Homo sapiens) (UniProt Q9HC16)
Assay: qHTS for Inhibitors of Vif-A3G Interactions: qHTS; also: nearly all actives have a fitted effect of over 60% in size;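 as to activity, negative = active: hits raise eYFP signal because A3G escapes Vif-driven loss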
Conditions: HeLa A3G-eYFP + Vif (tagged APOBEC3G with the HIV-1 protein that degrades it), YFP fluorescence, overnight; series mostly up to 46.1 µM; activity, negative = active: at the top concentration
In short: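 HeLa cells stably expressing Vif and C-terminally eYFP-tagged A3G, seeded overnight at 37 deg C, then exposed to compound by pintool overnight at 37 deg C. Rise in yellow fluorescence (Ex 488/Em 500-530, Acumen) marks blocked Vif-driven A3G degradation.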
% is scaled to controls: 0 for no effect and ±100 for the full control effect; potency is read from the fitted curve at half-maximal effect; tags tell the direction and shape of the fitted curve.

Sequence of UniProt Q9HC16 (Q9HC16 whole entry, looked up): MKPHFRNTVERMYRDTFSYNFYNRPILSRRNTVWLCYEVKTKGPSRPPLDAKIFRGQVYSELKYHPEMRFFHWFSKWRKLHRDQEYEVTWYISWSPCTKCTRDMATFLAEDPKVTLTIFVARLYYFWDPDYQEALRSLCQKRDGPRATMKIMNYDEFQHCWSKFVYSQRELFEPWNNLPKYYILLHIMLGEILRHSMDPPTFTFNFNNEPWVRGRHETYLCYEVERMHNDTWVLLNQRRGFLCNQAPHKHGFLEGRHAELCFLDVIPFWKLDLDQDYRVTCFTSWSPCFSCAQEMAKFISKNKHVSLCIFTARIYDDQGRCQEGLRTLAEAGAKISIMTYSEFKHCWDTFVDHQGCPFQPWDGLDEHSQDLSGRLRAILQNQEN

Structure (SMILES)	activity, negative = active	Potency
COc1ccccc1N1CCN(C(=O)CSc2n[nH]c(-c3ccccc3Cl)n2)CC1	inactive: 0.683%	–
CCC(CC)c1nc(C#N)c(NCc2ccccc2)o1	–	inconclusive: 8.91 µM [inhibitor, partial curve, poor fit]
CCOc1ccccc1N1CCN(C(=O)c2ccc3[nH]c(C)c(C)c3c2)CC1	–	inconclusive: 1.78 µM [inhibitor, full curve, poor fit]
COc1cc(N(C)C)c(OC)cc1/C=C/c1ccnc2ccccc12	–	active: 7.08 µM
O=C(CCCCn1c(=O)c2ccccc2n(Cc2ccc(Cl)cc2)c1=O)NCc1ccco1	–	inconclusive: 2.82 µM [inhibitor, full curve, poor fit]
CCOc1ccc2c(c1)S/C(=C\c1cccs1)C(=O)N2	–	inconclusive: 35.5 µM [inhibitor, single point]
Cc1cc2oc(C(=O)Nc3c(C(=O)Nc4ccccc4)oc4ccccc34)cc(=O)c2cc1C	inactive: 3.07%	–
CCOC(=O)c1cccc(NC(=O)CN2C(=O)c3ccccc3Sc3ncccc32)c1	inactive: -7.87%	–
COC(=O)C1CCC(=O)N1C(c1ccc(OC)cc1)c1cc(OC)c(OC)c(OC)c1 (configuration not stated)	–	inconclusive: 1 µM [inhibitor, full curve, poor fit]
CN(CC(=O)Nc1ccc(Cl)c(C(F)(F)F)c1)C(=O)c1ccc(S(=O)(=O)N2CCOCC2)cc1	–	inconclusive: 10 µM [inhibitor, partial curve, poor fit]
Cc1cccc(NC(=O)c2ccc(N(Cc3ccccc3)S(C)(=O)=O)cc2)c1	–	inconclusive: 20 µM [inhibitor, single point]
Cc1nc(SCc2nc3ccc(Cl)cc3[nH]2)c2oc3ccccc3c2n1	inactive: -9.55%	–
Clc1cccc(Cc2c(-c3ccco3)nc3ccc(Cl)cn23)c1	–	inconclusive: 22.4 µM [inhibitor, single point]
O=C(Nc1cccc(S(=O)(=O)NC2=NCCCCC2)c1)c1cc(-c2ccco2)nc2ccccc12	–	inconclusive: 15.8 µM [inhibitor, single point]
O=[N+]([O-])c1ccc(N/N=C\c2cccn2-c2ccccc2)nc1	–	active: 11.2 µM
Cc1ccc(CN2CCC(C(=O)Nc3cccc(-c4cccc(F)c4)c3)CC2)o1	inactive: 4.07%	–
CCOc1ccc(N(C(=O)Cn2nnc3ccccc32)C(C(=O)NCc2ccccc2)c2ccc(OC)cc2)cc1 (configuration not stated)	inactive: -3%	–
COc1cc(/C=N\NC(=O)c2ccccc2F)ccc1Oc1ccc([N+](=O)[O-])cn1	–	inconclusive: 11.2 µM [inhibitor, partial curve, poor fit]
N=c1n(CCN2CCCCC2)c2ccccc2n1CC(=O)c1ccc(Cl)c(Cl)c1	inactive: -21.6%	–
COC(C/C=C\[C@@H](O)[C@@H](C)OCc1ccccc1)OC	inactive: 0.742%	–
O=C(Nc1c(Cl)ccc2nsnc12)c1ccc([N+](=O)[O-])o1	–	inconclusive: 35.5 µM [inhibitor, single point]
COc1cc(OC)cc(C(=O)/C=C2\Sc3ccccc3N2C)c1	inactive: 2.65%	–
O=C1/C(=C/C=C/c2ccco2)SC(=S)N1NS(=O)(=O)c1ccccc1	inactive: 0.712%	–
Cc1cc(C)nc(N/N=C/c2cc(C)n(CC(F)(F)F)c2C)n1	inactive: 6.68%	–

Structure (SMILES)	activity, negative = active	Potency
COc1ccc(Nc2oc(-c3ccc(Cl)cc3)nc2C#N)cc1	–	inconclusive: 2.51 µM [inhibitor, full curve, poor fit]
COc1ccc(S(=O)(=O)NCc2ccccn2)cc1NC(=O)c1ccc(Cl)cc1	–	inconclusive: 8.91 µM [inhibitor, partial curve, poor fit]
O=C1C(=Cc2cccc(Cl)c2)CCc2ccccc21	–	inconclusive: 17.8 µM [inhibitor, single point]
C=CCOc1ccccc1CNc1ccccc1C	inactive: -11.2%	–
N#Cc1c(-c2ccc(Cl)cc2)c(-c2ccc(Cl)cc2)nn(CCO)c1=O	–	inconclusive: 1.41 µM [inhibitor, full curve, poor fit]
O=C(Cc1ccccc1)NCCC1=CCCCC1	inactive: 2.77%	–
O=C(/C=C/c1ccccc1)c1ccc2c(c1)OCO2	–	inconclusive: 25.1 µM [inhibitor, single point]
Cc1ccc(OCCC(=O)Nc2ccc(F)c(F)c2)cc1	inactive: -5.39%	–
COc1ccc(C=O)cc1COc1ccc(C)cc1[N+](=O)[O-]	–	inconclusive: 35.5 µM [inhibitor, single point]
CC(=O)N1CCc2c(sc(NC(=O)CS(=O)(=O)c3ccc(F)cc3)c2C#N)C1	–	inconclusive: 22.4 µM [inhibitor, partial curve, poor fit]
COC(=O)c1c(C)oc2ccc(N(C(=O)c3ccncc3)S(=O)(=O)c3ccccc3)cc12	–	inconclusive: 22.4 µM [inhibitor, single point]
O=C(C[N+]1(CCO)CCOCC1)c1ccc2ccccc2c1	inactive: 0.551%	–
Cc1ccc(NC(=O)CSc2nnc(-c3ccco3)c(-c3ccco3)n2)cc1	–	inconclusive: 1.78 µM [inhibitor, full curve, poor fit]
COc1nc(N(c2ccccc2)c2ccccc2)nc(-n2ccnc2)n1	inactive: -0.476%	–
COc1cccc(Nc2ncccc2C(=O)Nc2ccccc2)c1	inactive: -2.36%	–
Nc1ccc(/C=C/c2cc(Cl)nc3ccccc23)cc1	–	inconclusive: 12.6 µM [inhibitor, partial curve, poor fit]
O=[N+]([O-])c1c(Nc2ccc(O)cc2)cc(Cl)c2nonc12	–	inconclusive: 6.31 µM [inhibitor, single point]
O=C(O)c1ccc(C[n+]2c(-c3ccccc3)csc2Nc2ccccc2)cc1	inactive: -0.269%	–
CCCCc1cc(=O)oc2c(C)c(OCC(=O)NCCN3CCOCC3)ccc12	inactive: 1.91%	–
CC(=O)Nc1ccc(-c2ccnc3c2CC(C(=O)NCC2CCOCC2)O3)cc1 (configuration not stated)	–	inconclusive: 22.4 µM [inhibitor, single point]
COc1ccc(C(=O)n2nc(-c3ccco3)nc2NCc2cccs2)cc1OC	inactive: -6.7%	–
CCOC(=O)c1c(NC(=O)CSc2ncccn2)sc2c1CC(C)(C)NC2(C)C	inactive: 0.756%	–
CCOc1ccc(N2C(=O)C(Cl)=C(Nc3ccccc3O)C2=O)cc1	inactive: -11.5%	–
CC(C)CC(=O)/C(=C\c1ccc(Cl)cc1Cl)n1cncn1	–	inconclusive: 7.08 µM [inhibitor, full curve, poor fit]

Structure (SMILES)	activity, negative = active	Potency
O=C(Cc1ccccc1)Nn1c(O)c(/C=C2\C=Nc3ccccc32)sc1=S	–	inconclusive: 22.4 µM [inhibitor, single point]
Cc1ccc(NC(=O)Cn2c(=O)oc3cc(S(=O)(=O)N4CCC(C)CC4)ccc32)cc1C	–	inconclusive: 12.6 µM [inhibitor, single point]
CCOC(=O)c1c(-c2ccccc2)n(C)c2ccc(O)cc12	inactive: -1.37%	–
CCN(CC)C(=O)Cn1c(C)c(/C=C/c2cc[n+](C)cc2)c2ccccc21	–	active: 7.94 µM
COc1ccc(CNC(=O)Nc2nc(C(N)CCc3ccccc3)cs2)cc1 (configuration not stated)	inactive: -6.5%	–
Oc1ccc(-c2cn3ccccc3n2)cc1	inactive: 1.09%	–
CN(C)CCCN(C(=O)c1cc(-c2cccs2)nc2ccccc12)c1nc2c(F)cccc2s1	–	inconclusive: 35.5 µM [inhibitor, single point]
Cc1cc(C)cc(N(CC(=O)NCC2CCCO2)C(=O)CN2C(=O)COc3ccccc32)c1 (configuration not stated)	inactive: 0.178%	–
CN(C)C(=O)c1cccc(-c2cc(NC=O)c3ncc(-c4ccc(F)c(Cl)c4)n3c2)c1	–	inconclusive: 10 µM [inhibitor, partial curve, poor fit]
CCCCN(C)C(=O)C1CCCN(c2ncnc3onc(C)c23)C1 (configuration not stated)	inactive: 1.63%	–
Cc1cc(C)c(N2C(=O)CC(Sc3ccccc3N)C2=O)c(C)c1 (configuration not stated)	–	inconclusive: 10 µM [inhibitor, partial curve, poor fit]
Cc1nnc(N2CCC(C(=O)NCCc3ccccc3Cl)CC2)c2nn(-c3ccccc3)c(C)c12	–	inconclusive: 35.5 µM [inhibitor, single point]
N=C1/C(=C\c2coc3ccccc3c2=O)C(=O)N=C2SC(c3ccncc3)=NN12	–	inconclusive: 22.4 µM [inhibitor, partial curve, poor fit]
COc1ccc(CNc2nc3c(c(=O)[nH]c(=O)n3C)n2Cc2ccccc2C)cc1	–	inconclusive: 22.4 µM [inhibitor, single point]
COc1ccc(C(CNc2nc(-c3cccnc3)nc3ccccc23)N(C)C)cc1 (configuration not stated)	inactive: -0.873%	–
O=[N+]([O-])c1cc(-c2nc(-c3ccccc3)no2)ccc1NCc1ccco1	–	inconclusive: 6.31 µM [inhibitor, single point]
COc1ccc(NC(=O)C2Cc3c(-c4ccc5c(c4)OCO5)ccnc3O2)cc1 (configuration not stated)	–	inconclusive: 3.16 µM [inhibitor, full curve]
O=C(CCCCn1cnc2c(=S)nc[nH]c21)Nc1ccc(C(=O)O)cc1	inactive: -0.146%	–
COc1ccc(C(=O)/C=C/Sc2nc3ccccc3o2)cc1	–	inconclusive: 25.1 µM [inhibitor, single point]
CN1CCN(Cc2cn(C)nc2-c2ccccc2F)CC1c1ccccc1 (configuration not stated)	inactive: 3.96%	–
COc1ccc(OC)c(-n2cc3c(=O)n(C)c(=O)n(C)c3c2)c1	–	inconclusive: 8.91 µM [inhibitor, partial curve]
CC(C)n1cnc2c(NCc3ccccc3)cc(OCC3CCN(C)CC3)cc21	–	inconclusive: 22.4 µM [inhibitor, single point]
CCc1ccc(Nc2c([N+](=O)[O-])c(=O)oc3ccccc23)cc1	–	inconclusive: 25.1 µM [inhibitor, single point]
CCCCC1=NN(C(=O)c2ccco2)C(O)(C(F)(F)F)C1 (configuration not stated)	–	inconclusive: 7.94 µM [inhibitor, partial curve, poor fit]
